# ± gives the standard deviation of the averaged measurements. The full ranking holds about 33,000 sequences; the median of “E-score (dimensionless, -0.5 to 0.5)” is about -0.049, and the highest 2% start at about 0.37. The list shows a part of the results.
# Tested on: T1, PmTbr T-box DNA-binding domain (GST fusion)
# T1 sequence: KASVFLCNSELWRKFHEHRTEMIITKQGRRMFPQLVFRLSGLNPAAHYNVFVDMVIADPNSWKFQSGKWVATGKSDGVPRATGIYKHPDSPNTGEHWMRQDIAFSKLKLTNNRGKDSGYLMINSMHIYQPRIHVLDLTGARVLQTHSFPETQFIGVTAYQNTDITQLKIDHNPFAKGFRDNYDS
# Experiment: PBM E-score of 8-mer (E-score (dimensionless, -0.5 to 0.5)); Tbr is Tbrain of the sea star Patiria miniata (Pm) or the sea urchin Strongylocentrotus purpuratus (Sp); higher = stronger binding preference; most listed sequences are background and not binding sites
# Details: the construct has about 5 more residues each side
# Outline: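 GST-fused Tbr T-box DNA-binding domains (the whole T-box plus about five flanking residues) were expressed in BL21 E. coli at 20 °C and purified by glutathione affinity chromatography. Universal Agilent oligonucleotide arrays were made double-stranded by primer extension, incubated with 200 nM protein in PBS (pH 7.5), then scanned and quantified. Every ungapped 8-mer was scored from probe intensities. The Universal PBM Analysis Suite gave each word an enrichment E-score, averaged over duplicate arrays.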
row,Sequence,PBM E-score of 8-mer
1,AATAAAGA,-0.265 ± 0.022
2,CACAGCCC,-0.112 ± 0.014
3,GTGAAGGA,0.0566 ± 0.032
4,CAAACCGA,-0.0313 ± 0.06
5,ATGAACAC,-0.0187 ± 0.0075
6,ACGAAAAT,-0.0398 ± 0.04
7,GCAAAGAA,-0.0862 ± 0.0042
8,AAAAATTT,-0.141 ± 0.23
9,AGGGCAAG,-0.2 ± 0.018
10,ATACGATG,0.0881 ± 0.0098
11,GCTTCGCA,0.308 ± 0.01
12,AACAGGGG,-0.142 ± 0.056
13,GAGCGAGC,-0.137 ± 0.0078
14,ACGTATGG,-0.157 ± 0.062
15,ACTTCAAG,-0.0859 ± 0.024
16,ACTGTCTA,-0.0335 ± 0.055
17,ACTCTCAG,0.0216 ± 0.0043
18,GACAAGCC,0.0605 ± 0.023
19,ACCCTGCT,-0.0648 ± 0.025
20,CGTCGACA,0.26 ± 0.031
21,CATACAAG,-0.118 ± 0.036
22,GGTCAGAA,-0.0528 ± 0.011
23,CCGGAAAC,-0.0846 ± 0.0042
24,GGAATTAA,-0.233 ± 0.027
25,CCATGAGC,-0.138 ± 0.16

row,Sequence,PBM E-score of 8-mer
1,CTCCGAAC,-0.0286 ± 0.028
2,ATGTGTTG,0.398 ± 0.008
3,AACCCGCA,-0.0105 ± 0.021
4,AGGCTTGG,-0.2 ± 0.011
5,GAGTCGAC,0.172 ± 0.046
6,AGAAAGTC,-0.162 ± 0.021
7,ATAAATCG,-0.135 ± 0.0078
8,ACATAGTC,-0.269 ± 0.02
9,ACCTGTGC,0.0647 ± 0.0069
10,GGTTGCTA,0.0637 ± 0.05
11,CGAGTGAG,0.202 ± 0.017
12,GTCTTCGA,-0.195 ± 0.043
13,AAGAGTGA,0.215 ± 0.044
14,TCTCCAGA,-0.0379 ± 0.022
15,AGAACACT,0.133 ± 0.04
16,GCGTCATA,0.141 ± 0.0021
17,CTACCAAA,-0.0753 ± 0.067
18,ATAGCGAG,0.19 ± 0.0089
19,GACAGGGC,-0.229 ± 0.021
20,GACTGGGA,-0.145 ± 0.039
21,ACTCAGCA,-0.151 ± 0.053
22,CTCGTCGC,0.113 ± 0.061
23,AGGTCAAA,-0.262 ± 0.028
24,CTCCCAAC,-0.0412 ± 0.0027
25,GTCGGATA,-0.0948 ± 0.041

row,Sequence,PBM E-score of 8-mer
1,ACTATATC,-0.0173 ± 0.047
2,ATGGAGAG,-0.202 ± 0.042
3,CGAGGCCA,-0.0794 ± 0.015
4,CATAGCTA,-0.279 ± 0.051
5,AATCTCCT,-0.175 ± 0.11
6,AGGCGACG,0.268 ± 0.0026
7,GGGGACCC,0.003 ± 0.018
8,CCCGTGAC,0.103 ± 0.042
9,TCAGTCAA,-0.209 ± 0.052
10,GATTGCGC,0.0372 ± 0.085
11,CGCGGAAC,-0.0285 ± 0.035
12,GGCGACAA,0.3812 ± 0.0024
13,ACAGCCAA,-0.0687 ± 0.018
14,CAGGGCGC,0.157 ± 0.1
15,AGTGTAAG,0.218 ± 0.015
16,CCCTAAGG,-0.197 ± 0.023
17,ACAAGGGC,-0.132 ± 0.063
18,AGCGGAGA,0.0469 ± 0.037
19,ATTTTGGC,-0.0578 ± 0.05
20,ACAGGCCA,-0.0816 ± 0.047
21,ACTGGTTA,-0.0355 ± 0.092
22,ACTTTAAC,-0.0192 ± 0.073
23,CAGTTGTA,-0.0126 ± 0.037
24,CGTCAATC,0.128 ± 0.052
25,ATATCCCA,-0.0578 ± 0.0039

row,Sequence,PBM E-score of 8-mer
1,AGAAGTAG,-0.186 ± 0.068
2,TACCCCGA,-0.0567 ± 0.03
3,GTACAAAA,-0.112 ± 0.013
4,ACTCAAGG,-0.0737 ± 0.044
5,CAACGTTC,-0.0494 ± 0.042
6,ATTTCACC,0.167 ± 0.058
7,CTTTCCTA,-0.235 ± 0.075
8,AGGTTGGA,-0.251 ± 0.0084
9,ATCGTGTG,0.217 ± 0.027
10,CTGTTGAA,-0.0551 ± 0.1
11,CCGTTGAC,0.207 ± 0.0037
12,ACCGTCTC,0.0641 ± 0.047
13,ACACCTAC,0.4763 ± 0.0017
14,ACCGACCA,-0.163 ± 0.05
15,ATCAAGGA,-0.254 ± 0.0053
16,AAAGATCA,-0.284 ± 0.037
17,ATGTAAAA,-0.21 ± 0.0095
18,CCTTTCCC,-0.132 ± 0.071
19,CCATCTCG,-0.0242 ± 0.099
20,CTGGTGTA,0.0817 ± 0.037
21,ACGATTGG,-0.125 ± 0.048
22,AGGGAGCG,-0.0241 ± 0.0087
23,ATGCCTTC,0.0114 ± 0.064
24,AGCGGTTA,0.0631 ± 0.03
25,ATATTCAT,-0.155 ± 0.012

row,Sequence,PBM E-score of 8-mer
1,CATACCGG,-0.0513 ± 0.024
2,AAAATCAG,-0.213 ± 0.033
3,ATGGATTG,-0.167 ± 0.075
4,CTCTTATC,-0.041 ± 0.029
5,CTTATCAA,0.0425 ± 0.075
6,CAAGGTAA,0.00125 ± 0.13
7,AGTACTAC,-0.315 ± 0.0088
8,GCTCTACA,-0.0571 ± 0.083
9,GGCTGGCA,-0.0305 ± 0.044
10,AGAGAAGC,-0.183 ± 0.09
11,AACCATCA,0.0805 ± 0.034
12,ATTCATAC,-0.137 ± 0.06
13,CTAAAAAA,0.03 ± 0.11
14,ATGAGTGC,-0.0415 ± 0.029
15,ATGCAAAT,-0.138 ± 0.073
16,GATTTTAA,-0.118 ± 0.047
17,ACAACAGG,0.165 ± 0.024
18,ACGATCTC,0.00949 ± 0.1
19,AAGAAAAC,-0.0889 ± 0.032
20,ATATCGAA,-0.109 ± 0.03
21,ATACGGAC,-0.0726 ± 0.013
22,CCTGGTTC,-0.0768 ± 0.014
23,CTATGTCC,-0.172 ± 0.017
24,AAGGTTCT,-0.0302 ± 0.087
25,CGCGAATA,0.327 ± 0.045

row,Sequence,PBM E-score of 8-mer
1,CAGAAATC,-0.01 ± 0.051
2,CAGACGTC,-0.134 ± 0.089
3,ACCCACAG,-0.00239 ± 0.035
4,CGATTTTA,-0.119 ± 0.058
5,CCGTGAAC,0.257 ± 0.04
6,AGAAAATC,0.13 ± 0.048
7,ACGATTTC,0.115 ± 0.0049
8,AGATCGAT,-0.271 ± 0.024
9,CAGCGGGA,-0.0262 ± 0.032
10,AGTCTCTG,-0.167 ± 0.028
11,ATCAAGTC,0.00964 ± 0.031
12,ACACACCG,0.125 ± 0.027
13,AGGAAAAA,-0.178 ± 0.041
14,GCCGCAAA,-0.108 ± 0.029
15,ACCCTAAA,-0.16 ± 0.096
16,TATTAGAA,-0.185 ± 0.04
17,GTATACTA,-0.0229 ± 0.037
18,ACCATGGG,-0.0421 ± 0.047
19,GCAGGTAC,-0.114 ± 0.022
20,CCCATGGG,-0.214 ± 0.016
21,AGAAGCAT,-0.357 ± 0.036
22,CGTAATGC,-0.1853 ± 0.00019
23,AATACCTA,-0.143 ± 0.061
24,TCAAGAAA,-0.17 ± 0.11
25,ATGCTACC,-0.139 ± 0.057

row,Sequence,PBM E-score of 8-mer
1,CGCTACAG,0.0997 ± 0.07
2,AAAGCGAT,-0.0541 ± 0.086
3,GAGAAAAA,0.109 ± 0.069
4,CACCAAGG,0.154 ± 0.024
5,TCCGGTAA,-0.111 ± 0.014
6,GGAAAAAA,-0.135 ± 0.051
7,CAAGACGC,-0.027 ± 0.058
8,ATTCGATA,0.111 ± 0.081
9,ACATTTCA,0.125 ± 0.0075
10,ATAGTTCA,-0.0384 ± 0.017
11,ATAATGCA,0.00791 ± 0.1
12,AATCCCGA,-0.192 ± 0.058
13,GCCGGAAC,-0.0937 ± 0.0089
14,ACACCCGG,0.3462 ± 0.00071
15,AGTTGCAT,-0.106 ± 0.042
16,CGTGGAAA,-0.0945 ± 0.027
17,ACAGCAAA,-0.0639 ± 0.066
18,CTTGCTCA,0.0359 ± 0.0032
19,ACATACAT,-0.173 ± 0.028
20,AGAGCATA,-0.258 ± 0.012
21,CGCAGCAC,0.0184 ± 0.054
22,AATATGGG,-0.0411 ± 0.027
23,GCTCGGAC,-0.229 ± 0.01
24,ATTCTTGC,-0.174 ± 0.05
25,CGTCTGCC,0.00703 ± 0.083

row,Sequence,PBM E-score of 8-mer
1,GTCCACAC,0.346 ± 0.0095
2,CTGGAATA,-0.045 ± 0.038
3,GATATATC,0.101 ± 0.037
4,ACTGAGTA,-0.146 ± 0.05
5,AAGACCAG,0.0377 ± 0.13
6,AACTACGC,0.0192 ± 0.043
7,CGTTTAGA,-0.165 ± 0.034
8,GAGCGCCA,0.0605 ± 0.028
9,ACGGCGCG,0.23584 ± 0.00022
10,ACTCCATA,0.0894 ± 0.0061
11,CGTCGACC,-0.0661 ± 0.0047
12,ATAGCCGC,-0.0519 ± 0.16
13,CACCGCAG,-0.0173 ± 0.065
14,GTAGCAAC,0.2223 ± 0.00093
15,CACGTTGG,0.261 ± 0.0042
16,AACAGGCA,-0.114 ± 0.083
17,CTTACACA,0.277 ± 0.012
18,GTCACCCA,0.259 ± 0.056
19,AGTAAAGA,-0.136 ± 0.037
20,AATTTATC,0.0791 ± 0.073
21,ACCTGGAC,0.0878 ± 0.0041
22,CTAGATAC,-0.196 ± 0.018
23,AATCGGAG,-0.164 ± 0.0056
24,AAAACTAT,-0.0637 ± 0.068
25,CAAGACAA,0.074 ± 0.057

row,Sequence,PBM E-score of 8-mer
1,GGGTGCCA,0.426 ± 0.011
2,TGCTCCCA,-0.142 ± 0.01
3,AGCCACCG,-0.0981 ± 0.014
4,CTAGGTCC,-0.13 ± 0.071
5,GAACACCC,0.1762 ± 0.00083
6,GCGACAGA,0.284 ± 0.01
7,GCAGCTGA,0.108 ± 0.055
8,AATCTTTG,-0.0184 ± 0.015
9,CTACAAAA,-0.0644 ± 0.12
10,TTGTACAA,-0.0404 ± 0.039
11,AGGTAAAA,0.0141 ± 0.096
12,GAAGTCGA,0.0477 ± 0.01
13,GATTCCCC,0.0772 ± 0.026
14,AACTGTTG,0.242 ± 0.019
15,ATGGTTTG,-0.193 ± 0.0089
16,ATAGCAGA,-0.0487 ± 0.06
17,AAGCCGCA,-0.0359 ± 0.11
18,GCTCTCAA,-0.0325 ± 0.086
19,AGCCAAGC,-0.298 ± 0.076
